T1: RBFOX1 RRM (Homo sapiens, UniProt Q9NWB1 109-208)
T1 sequence: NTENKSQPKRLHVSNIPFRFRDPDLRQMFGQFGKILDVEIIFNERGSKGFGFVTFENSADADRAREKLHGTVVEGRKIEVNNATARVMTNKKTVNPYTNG

B1: UCCGGUA (DNA:RNA)
RNA: GGGAGACCGGAAUUCAGAUUGUCCUCCGGUAUUAAAUCCCGUCGUAGCCACCA
DNA 1: CAATCTGAATTCCGGTCTCCC
DNA 2: TGGTGGCTACGACGGGATT
B2: AAUACUC (DNA:RNA)
RNA: B1 RNA with U25A, C26A, C27U, G28A, G29C, A31C
DNA 1: CAATCTGAATTCCGGTCTCCC
DNA 2: TGGTGGCTACGACGGGATT
B3: UCAGCGU (DNA:RNA)
RNA: B1 RNA with C27A, G29C, U30G, A31U
DNA 1: CAATCTGAATTCCGGTCTCCC
DNA 2: TGGTGGCTACGACGGGATT
B4: GUAUUAA (DNA:RNA)
RNA: B1 RNA with U25G, C26U, C27A, G28U, G29U, U30A
DNA 1: CAATCTGAATTCCGGTCTCCC
DNA 2: TGGTGGCTACGACGGGATT
B5: CCUCUUU (DNA:RNA)
RNA: B1 RNA with U25C, C27U, G28C, G29U, A31U
DNA 1: CAATCTGAATTCCGGTCTCCC
DNA 2: TGGTGGCTACGACGGGATT
B6: GGCAGCA (DNA:RNA)
RNA: B1 RNA with U25G, C26G, G28A, U30C
DNA 1: CAATCTGAATTCCGGTCTCCC
DNA 2: TGGTGGCTACGACGGGATT
B7: GAAUUGC (DNA:RNA)
RNA: GGGAGACCGGAAUUCAGAUUGUCCGAAUUGCUUAAAUCCCGUCGUAGCCACCA
DNA 1: CAATCTGAATTCCGGTCTCCC
DNA 2: TGGTGGCTACGACGGGATT
B8: GUCACGA (DNA:RNA)
RNA: B7 RNA with A26U, A27C, U28A, U29C, C31A
DNA 1: CAATCTGAATTCCGGTCTCCC
DNA 2: TGGTGGCTACGACGGGATT
B9: AGCCAUC (DNA:RNA)
RNA: B1 RNA with U25A, C26G, G28C, G29A, A31C
DNA 1: CAATCTGAATTCCGGTCTCCC
DNA 2: TGGTGGCTACGACGGGATT
B10: AGCUCUG (DNA:RNA)
RNA: B1 RNA with U25A, C26G, G28U, G29C, A31G
DNA 1: CAATCTGAATTCCGGTCTCCC
DNA 2: TGGTGGCTACGACGGGATT
B11: UAACGAA (DNA:RNA)
RNA: B1 RNA with C26A, C27A, G28C, U30A
DNA 1: CAATCTGAATTCCGGTCTCCC
DNA 2: TGGTGGCTACGACGGGATT
B12: AUUCCUC (DNA:RNA)
RNA: B7 RNA with G25A, A26U, A27U, U28C, U29C, G30U
DNA 1: CAATCTGAATTCCGGTCTCCC
DNA 2: TGGTGGCTACGACGGGATT
B13: CCCAUCU (DNA:RNA)
RNA: B1 RNA with U25C, G28A, G29U, U30C, A31U
DNA 1: CAATCTGAATTCCGGTCTCCC
DNA 2: TGGTGGCTACGACGGGATT
B14: AAUAUUG (DNA:RNA)
RNA: B7 RNA with G25A, A27U, U28A, G30U, C31G
DNA 1: CAATCTGAATTCCGGTCTCCC
DNA 2: TGGTGGCTACGACGGGATT
B15: GCCCAGA (DNA:RNA)
RNA: B1 RNA with U25G, G28C, G29A, U30G
DNA 1: CAATCTGAATTCCGGTCTCCC
DNA 2: TGGTGGCTACGACGGGATT
B16: UCGACCA (DNA:RNA)
RNA: B1 RNA with C27G, G28A, G29C, U30C
DNA 1: CAATCTGAATTCCGGTCTCCC
DNA 2: TGGTGGCTACGACGGGATT
B17: CCAAGUA (DNA:RNA)
RNA: B1 RNA with U25C, C27A, G28A
DNA 1: CAATCTGAATTCCGGTCTCCC
DNA 2: TGGTGGCTACGACGGGATT
B18: UGUCUAU (DNA:RNA)
RNA: B7 RNA with G25U, A26G, A27U, U28C, G30A, C31U
DNA 1: CAATCTGAATTCCGGTCTCCC
DNA 2: TGGTGGCTACGACGGGATT
B19: UCCUAAU (DNA:RNA)
RNA: B1 RNA with G28U, G29A, U30A, A31U
DNA 1: CAATCTGAATTCCGGTCTCCC
DNA 2: TGGTGGCTACGACGGGATT
B20: GUAGAUG (DNA:RNA)
RNA: B7 RNA with A26U, U28G, U29A, G30U, C31G
DNA 1: CAATCTGAATTCCGGTCTCCC
DNA 2: TGGTGGCTACGACGGGATT
B21: CCGAUAC (DNA:RNA)
RNA: B7 RNA with G25C, A26C, A27G, U28A, G30A
DNA 1: CAATCTGAATTCCGGTCTCCC
DNA 2: TGGTGGCTACGACGGGATT
B22: ACAAGCA (DNA:RNA)
RNA: B1 RNA with U25A, C27A, G28A, U30C
DNA 1: CAATCTGAATTCCGGTCTCCC
DNA 2: TGGTGGCTACGACGGGATT
B23: AGCCCUC (DNA:RNA)
RNA: B1 RNA with U25A, C26G, G28C, G29C, A31C
DNA 1: CAATCTGAATTCCGGTCTCCC
DNA 2: TGGTGGCTACGACGGGATT
B24: UGUGCGG (DNA:RNA)
RNA: B1 RNA with C26G, C27U, G29C, U30G, A31G
DNA 1: CAATCTGAATTCCGGTCTCCC
DNA 2: TGGTGGCTACGACGGGATT
B25: GAUAGCG (DNA:RNA)
RNA: B7 RNA with A27U, U28A, U29G, G30C, C31G
DNA 1: CAATCTGAATTCCGGTCTCCC
DNA 2: TGGTGGCTACGACGGGATT
B26: GAGAUGA (DNA:RNA)
RNA: B7 RNA with A27G, U28A, C31A
DNA 1: CAATCTGAATTCCGGTCTCCC
DNA 2: TGGTGGCTACGACGGGATT
B27: ACUCCGA (DNA:RNA)
RNA: B1 RNA with U25A, C27U, G28C, G29C, U30G
DNA 1: CAATCTGAATTCCGGTCTCCC
DNA 2: TGGTGGCTACGACGGGATT
B28: AGGGUUA (DNA:RNA)
RNA: B1 RNA with U25A, C26G, C27G, G29U
DNA 1: CAATCTGAATTCCGGTCTCCC
DNA 2: TGGTGGCTACGACGGGATT
B29: CCAGCGC (DNA:RNA)
RNA: B7 RNA with G25C, A26C, U28G, U29C
DNA 1: CAATCTGAATTCCGGTCTCCC
DNA 2: TGGTGGCTACGACGGGATT
B30: GGUAGUC (DNA:RNA)
RNA: B7 RNA with A26G, A27U, U28A, U29G, G30U
DNA 1: CAATCTGAATTCCGGTCTCCC
DNA 2: TGGTGGCTACGACGGGATT
B31: CUUUUAG (DNA:RNA)
RNA: B7 RNA with G25C, A26U, A27U, G30A, C31G
DNA 1: CAATCTGAATTCCGGTCTCCC
DNA 2: TGGTGGCTACGACGGGATT

Residue numbers refer to the chain shown, from its start. The list shows a part of the results.

The text below walks through data of publication PMC9911399, “Two distinct binding modes provide the RNA-binding protein RbFox with extraordinary sequence specificity”.

This experiment has as its target T1, RBFOX1 RRM. Description: EMSA; HiTS-Eq, 1 nM pool, 10 min; buffer printed only for the single-RNA assays: 10 mM Tris pH 7.5, 150 mM NaCl, 3.4 mM EDTA, 0.001% NP-40, 30 C. Conditions: tags: His6 N-terminal (pET28a); label: 5' 32P. Summed up: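 Purified RbFox RRM (wild type or mutant) was equilibrated for 10 min in 50 µL with 1 nM of a 5′-radiolabelled pool of RNA with 7 randomized nucleotides, its flanks annealed to DNA oligonucleotides, across increasing protein concentrations. Free RNA was separated by 8% native PAGE, excised, reverse-transcribed, PCR-barcoded and sequenced on an Illumina HiSeq 2500. Relative association constants came from read-count changes of each variant against the control reaction, normalised to the cognate motif.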
For orientation: Mobility shift assays separate free from complexed probe on a gel.
Consider B1, for which the binding signal was 0.00405 KA relative to UGCAUGU.
B2: the binding signal is 0.00125 KA relative to UGCAUGU.
Then B3, with 0.0131 KA relative to UGCAUGU; and B4, with 0.00181 KA relative to UGCAUGU; and B5, with 0.00522 KA relative to UGCAUGU.
Under B6 stands 0.0104 KA relative to UGCAUGU; under B7, 0.0117 KA relative to UGCAUGU; under B8, 0.0123 KA relative to UGCAUGU.
Regarding B9, the binding signal is 0.0036 KA relative to UGCAUGU.
Then B10, with 0.0163 KA relative to UGCAUGU; and B11, with 0.00683 KA relative to UGCAUGU; and B12, with 0.00325 KA relative to UGCAUGU.
On to B13, for which the binding signal is 0.000718 KA relative to UGCAUGU.
Under B14 stands 0.00294 KA relative to UGCAUGU; under B15, 0.0133 KA relative to UGCAUGU; under B16, 0.00125 KA relative to UGCAUGU.
For the molecule B17, the binding signal was 0.00123 KA relative to UGCAUGU.
Then B18, with 0.0104 KA relative to UGCAUGU; and B19, with 0.00217 KA relative to UGCAUGU; and B20, with 0.0126 KA relative to UGCAUGU.
For the molecule B21, the binding signal was 0.00577 KA relative to UGCAUGU.
Then B22, with 0.00399 KA relative to UGCAUGU; and B23, with 0.00539 KA relative to UGCAUGU.
As to B24, the binding signal was 0.0217 KA relative to UGCAUGU.
Then B25, with 0.0141 KA relative to UGCAUGU.
Then B26, with 0.0163 KA relative to UGCAUGU; and B27, with 0.00366 KA relative to UGCAUGU; and B28, with 0.0155 KA relative to UGCAUGU.
On to B29, for which the binding signal is 0.00486 KA relative to UGCAUGU.
B30: the binding signal was 0.0157 KA relative to UGCAUGU.
As for B31, the binding signal was 0.0106 KA relative to UGCAUGU.
